Experimental data: ChEMBL document CHEMBL4888484, “Replenishing the malaria drug discovery pipeline: Screening and hit evaluation of the MMV Hit Generation Library 1 (HGL1) against asexual blood stage Plasmodium falciparum ,using a nano luciferase reporter read-out” (2022)
The whole screen tested about 150,000 compounds, of which about 540 (0.36%) showed an effect of 50% or more. The list shows a part of the results.

Tested on: Plasmodium falciparum
Assay: Primary screen in NF54 nanoGlo assay, in single point, at 2uM, 72h; a lower Z score goes with more inhibition
Assay type: functional, Erythrocyte
Details: timepoint 72 hour

| Compound | % Inhibition | Z score |
| --- | --- | --- |
| CCc1nc(C)sc1C(=O)N1CCC2(CC1)C(=O)NC(=O)N2CC | -3% | 0.49 |
| Cc1cc2ncc3c(n2n1)CCN(C(=O)c1cccn(C)c1=O)C3 | -8% | 1.28 |
| Cc1ccc(=O)n(Cc2ncnn2CCc2ccccc2)n1 | 1% | -0.07 |
| COCCCNc1c(-c2cccc(F)c2)nc2sc(C(=O)N3CCN(C)CC3)c(C)n12 | -8% | 1.43 |
| O=C(O)C1CCC(NCC2(c3cccc(Cl)c3)CCCCC2)CC1 (configuration not stated) | -5% | 0.64 |
| CCN1CCC[C@@H]1CNC(=O)c1cccc(-c2cc(F)ccc2C(C)=O)c1 | -6% | 0.9 |
| CCOc1cc(CN(Cc2ccccc2C)[C@@H](C)COC)ccc1OCCn1ccnc1 | 0% | -0.03 |
| C[C@@H](CO)N(C)S(=O)(=O)[C@H]1C[C@@H]1c1ccc(Br)cc1 | 1% | -0.19 |
| O=C(Nc1ccc(OCc2ccccc2)cc1)c1ncn(C[C@H](O)c2ccc(F)cc2)n1 | -7% | 0.76 |
| CC(=O)NCC(=O)NC1(C(=O)NC2CCCC2)CCCCC1 | 1% | -0.18 |
| CCN1CCc2ncnc(N3CCCN(C)CC3)c2C1 | 3% | -0.42 |
| CCn1nc(CNC(=O)[C@]2(C)CCCO2)c2ccccc21 | -15% | 1.92 |
| O=C(Cc1cc(F)c(F)cc1F)Nc1nc(C2CC2)n[nH]1 | -10% | 1.08 |
| Cc1cc(C)cc(NC(=O)C2CCN(S(=O)(=O)c3cc(-c4noc(C)n4)ccc3Cl)CC2)c1 | -10% | 1.34 |
| CC(C)(C)c1ccc(C2=Nc3ccc(F)cc3C(c3ccccc3)=NN2)cc1 | -26% | 3.04 |
| Cc1n[nH]c(CN2CCC(OCc3cccnc3)CC2)c1Cl | -10% | 1.45 |
| COc1ccc(-c2noc(-c3cc(=O)[nH]c(C4CC4)n3)n2)cc1 | -8% | 1 |
| CCCN(C)C(=O)C1CCCC(F)C1 (configuration not stated) | 0% | 0.05 |
| CC1CCN(C(=O)c2cc3oc(-c4ccc(F)cc4)cc3n2Cc2ccccc2)CC1 | -1% | 0.15 |
| CS(=O)(=O)N(CC(=O)N1CCCCCC1)c1ccc(OCc2ccccc2)cc1 | -4% | 0.4 |
| CCOc1ccc(-c2nc(C3CC3)n[nH]2)o1 | -2% | 0.22 |
| COc1ccc(CCNC(=O)c2cc(C)nc(C)n2)cc1 | 3% | -0.49 |

| Compound | % Inhibition | Z score |
| --- | --- | --- |
| NC(=O)CN(CCC1CCCCC1)C(=O)c1ccccn1 | 5% | -0.78 |
| CCC(NC(=O)c1cc(=O)cc(C)n1C)[C@H]1C[C@H](O)C1 (some centres not stated) | -12% | 1.51 |
| CCCN1CCC(N2C[C@@H]3OC(=O)N(CCc4cccc(Cl)c4)[C@@H]3C2)CC1 | -17% | 1.6 |
| Cc1ccc(NC(=O)C(F)F)c(Cl)c1 | 1% | -0.18 |
| COc1cccc(F)c1C(=O)Nc1ccccc1N1C(=O)N[C@@H](C)C1=O | -7% | 1.03 |
| COc1ccccc1C(=O)NC(=O)COC(=O)Cc1ccc(Cl)cc1 | -1% | 0.24 |
| c1ccc(-c2nc(CN3CCc4ccccc4C3)cs2)cc1 | -1% | 0.12 |
| COc1ccccc1O[C@H]1CCCN(C(=O)c2ccc3[nH]c(=O)n(C)c3c2)C1 | 7% | -0.86 |
| O=C1[C@H]2[C@@H](C(=O)N1c1ccc(Br)cc1)[C@]1(C(=O)Nc3ccc(F)cc31)N1CCC[C@@H]21 | -7% | 1.14 |
| CNC(=O)[C@H]1CCN(C(=O)c2cn(C)nc2C2CC2)C1 | -3% | 0.47 |
| Cc1noc(CNC(=O)C2CCN(C(=O)c3ccco3)CC2)n1 | -10% | 1.48 |
| Cc1cc(C(=O)N2CCCCCC2)c2c(C)nn(-c3ccccc3Cl)c2n1 | -6% | 0.82 |
| Cc1cc(C)nc(NS(=O)(=O)c2cc3c(cc2C)OCO3)n1 | -14% | 2.53 |
| O=C(NC1CCCc2sc(Cl)cc21)C1CCc2[nH]ncc2C1 (configuration not stated) | 1% | -0.22 |
| Cc1ccc(OCC[C@H]2CCN(C(=O)c3cc(C)n(C)n3)C2)cc1 | -19% | 3.58 |
| CC1CC1C(=O)NCCN1CCOCC1 (configuration not stated) | -17% | 1.57 |
| CCNC(=O)c1ccc2c(=O)n3c(nc2c1)CCCC3 | -1% | 0.21 |
| NC(=O)c1coc(CNC(=O)C2(c3cccnc3)CCCC2)n1 | 2% | -0.17 |
| Cc1ccc(C(=O)Nc2ncnc3sccc23)cc1 | -26% | 3.29 |
| C=CCC[C@@H](CO)NC(=O)c1ccn(C(C)C)n1 | -36% | 4.2 |
| O=C(c1cn(C(c2ccccc2)c2ccccc2)nn1)N1CCCCCCC1 | -2% | 0.39 |
| CCc1ccc(C(=O)NCCn2nnc3cc(S(=O)(=O)NC(C)C)ccc32)cc1 | -11% | 1.3 |

| Compound | % Inhibition | Z score |
| --- | --- | --- |
| COc1ccccc1/C=C/c1nc(-c2ccc(=O)n(C)c2)no1 | -10% | 1.57 |
| O=C1[C@H]2C(Cc3c[nH]c4ccccc34)N[C@@]3(C(=O)Nc4ccc(Br)cc43)[C@H]2C(=O)N1CC1CCCO1 (some centres not stated) | 0% | -0.06 |
| CCOc1ncccc1-c1cnn(CC(=O)NC)c1 | 1% | -0.08 |
| C#CCCN1CCC(C(=O)NCCCC)CC1 | -25% | 2.97 |
| COC(=O)c1cc(-n2cnc3ccccc32)ccn1 | -1% | 0.18 |
| O=C(NCCn1ccc(C(F)(F)F)n1)c1ccc(S(=O)(=O)N2CCOCC2)cc1 | -13% | 1.64 |
| Cc1cccc(N2CCN(C(=O)N[C@H]3CCCCNC3=O)CC2)c1C | 0% | 0.04 |
| Cc1ccc([C@@H]2CCCN2Cc2cnc3cnccn23)s1 | -1% | 0.11 |
| Cc1nc(C)c(CC(=O)N2CCOC[C@@H](CO)C2)s1 | 1% | -0.19 |
| CN(CCCCC1CCOCC1)CC1CCOCC1 | -3% | 0.37 |
| O=C(NC1CCCC1)N(CCN1CCCCC1)C1CCOCC1 | -9% | 1.49 |
| O=C(Nc1ccc(Cl)c(Cl)c1)N1CC(N2CC3CCCC3C2)C1 (configuration not stated) | -12% | 1.39 |
| C[C@H](NC(=O)c1coc(CN2CCN(c3cccc(C(F)(F)F)c3)CC2)n1)c1ccccc1 | -6% | 0.62 |
| CCc1nc(-c2ccc(C(=O)Nc3cccnc3)cc2)no1 | -10% | 1.02 |
| C[C@H]1CCCN(C(=O)C(=O)N2CC3(CC3)C2)C1 | 13% | -1.46 |
| Cc1ccnc(NCCNC2CCCCCC2)c1 | -3% | 0.46 |
| CCn1cnc2c1CCN(C(=O)Nc1cc(S(C)(=O)=O)ccn1)C2 | -1% | 0.17 |
| COc1ccc(NC(=O)C(=O)Nc2cn[nH]c2)c(OC)c1 | -5% | 0.65 |
| CCCn1nc(C(=O)N2CCC(C)CCC2C(C)C)ccc1=O (configuration not stated) | -5% | 0.62 |
| Cc1cccc([C@H](C2CC2)n2ccnc2-c2nc3ccccc3n2C)n1 | -10% | 1.26 |
| CC(C)CCCN(C)C(=O)CC1CCC2(CC1)OCCO2 | -7% | 1 |
| C[C@H]1CN(C(=O)NCc2ccc(Cn3ccnc3)cc2)CC(=O)N1C | -2% | 0.5 |

| Compound | % Inhibition | Z score |
| --- | --- | --- |
| FC(F)(F)c1cccc(C2(c3nc([C@@H]4COCCN4)no3)CCOCC2)c1 | 0% | 0.05 |
| Cc1nc(C)c(-c2cc(C(=O)N3CCN(c4ccc(F)cc4)CC3)[nH]n2)s1 | 5% | -0.65 |
| COc1ccc(-n2nnc3c(=O)n(CC(=O)N4CCCCCC4)cnc32)cc1OC | -4% | 0.77 |
| COc1cc2c(cc1OC)CN(C(=O)c1ccncc1)CC2 | 4% | -0.79 |
| Cc1cccc(N(C)Cc2cc(-c3cnn(C)c3)no2)c1C | -2% | 0.29 |
| Cc1nc(N2CC(C)(C#N)C2)c2cnn(-c3cccc(F)c3)c2n1 | -8% | 0.89 |
| CN(Cc1cnn(C)c1)Cc1nc2cc(C(F)(F)F)ccc2o1 | 0% | 0.06 |
| CNS(=O)(=O)CCN1CCC(F)(F)C1 | 4% | -0.81 |
| O=C(c1cccnc1O)N1CCC(c2nccn2CC2CC2)CC1 | -4% | 0.53 |
| COc1ccc(/C=C/C2C(S(=O)(=O)NCCCN3CCCC3=O)CON2C)cc1 (configuration not stated) | -1% | 0.19 |
| CCc1nnsc1C(=O)N[C@@H](C)c1nc(C)no1 | -15% | 2.23 |
| Cc1noc(C)c1CS(=O)(=O)CC(=O)N1CCC[C@H](C)C1 | -6% | 0.72 |
| O=C(Nc1cccnc1)[C@H]1CC12CCCCC2 | -7% | 1.03 |
| O=C1c2cc(NS(=O)(=O)c3cccnc3)ccc2OCC[C@@H]2CCCCN12 | -1% | 0.17 |
| CCn1ncc(NC(=O)NC[C@@]2(C)CCCCO2)c1C(F)(F)F | -21% | 4.08 |
| Cc1ccc(C)c([C@H](C)N(C)C(=O)Cn2ncn(C)c2=O)c1 | 8% | -0.97 |
| COCCn1c(-c2ccc(C)o2)nnc1N1CCC(OC)CC1 | 0% | 0.05 |
| O=C1[C@@H]2Cc3c([nH]c4ccccc34)C(c3ccc(Cl)cc3)N2C(=O)CN1CCO (some centres not stated) | -7% | 1.11 |
| CCOc1cc(NCc2ncccc2F)ncn1 | 4% | -0.37 |
| Cc1ccccc1C(=O)NCC(=O)N[C@H]1CCCOC1 | -2% | 0.3 |
